Assay results taken from patent US20230287598A1.

How the values were obtained:
[1] = target: CXCR1 (UniProt P25024); experiment: flow cytometry, 10 nM IgG, 2 ug/ml heparin sulfate, CXCR1-U2OS / parental U2OS
[2] = target: CXCR1 (UniProt P25024); experiment: flow cytometry, CXCR1-U2OS / parental U2OS

Chain of UniProt P25024 (P25024 whole entry): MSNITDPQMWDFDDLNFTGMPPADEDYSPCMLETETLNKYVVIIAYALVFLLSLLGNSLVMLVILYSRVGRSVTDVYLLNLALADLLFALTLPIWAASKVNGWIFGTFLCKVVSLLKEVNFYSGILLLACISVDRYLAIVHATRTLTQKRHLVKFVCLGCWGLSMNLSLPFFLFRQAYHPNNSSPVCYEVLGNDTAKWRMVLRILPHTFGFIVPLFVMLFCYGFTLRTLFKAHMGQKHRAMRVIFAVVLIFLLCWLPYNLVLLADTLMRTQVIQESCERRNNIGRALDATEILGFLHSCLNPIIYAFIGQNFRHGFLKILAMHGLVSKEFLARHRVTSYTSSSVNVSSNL

- CXCR1 specificity (CXCR1/parental ratio) [1]: 11.1
- CXCR1/Parental Ratio [2]: 3.1
B1: VH4-34+CDR3-IL8_CDR1 Cow_CDR2 Cow / V1-51 IgG (antibody, from a related filing, part only)
heavy: QVQLQQWGAGLLKPSETLSLTCTASGFSLSDKAVGWIRQPPGKGLEWLGSIDTGGNTGYNPSLKSRVTISVDTSKNQFSLKLSSVTAADTAVYYCTSVHQETKKYQSPRSAKELRCQCIKTYSKPFHPKFIKELRVIESGPHCANTEIIVKLSDGRELCLDPKENWVQRVVEKFLKRAENSGSGSYTYNYEWHVDVWGQGLLVTVSS[omitted - human IgG1 constant region]
light: QSVLTQPPSVSAAPGQKVTISCSGSSSNIGNNYVSWYQQLPGTAPKLLIYDNNKRPSGIPDRFSGSKSGTSATLGITGLQTGDEADYYCASAEDSSSNAVFGSGTTLTVLGQPKAAPSVTLFPPSSEELQANKATLVCLISDFYPGAVTVAWKADSSPVKAGVETTTPSKQSNNKYAASSYLSLTPEQWKSHRSYSCQVTHEGSTVEKTVAPTECS
